# Reference: PubChem BioAssay (Tox21)
# Values joined by “and” are separate entries in the source; they are usually repeats but may differ in a detail not shown here. Equal entries are not always repeated. Active and inactive are the calls of the source. Unless noted, calls follow the shape of the dose curve; as a rule, active = well fitted curve in the direction sought with a large enough effect in the repeat runs; inconclusive = weak or mixed curves; inactive = no such curve, though single readings can be large; an effect the other way counts as inactive or inconclusive.
# Assays:
# [1] = qHTS RealTime-Glo MT Cell Viability Assay in HEK293 cells - 40 hour (AID 1224874); details: RealTime-Glo luminescence; max response: stronger effect = lower value; also: % is scaled to controls: 0 for no effect and ±100 for the full control effect; nearly all actives have a fitted effect of over 50% in size
# Method in brief: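 Real-time viability in HEK293: signal arises when living cells convert a prosubstrate for NanoLuc in the medium, so luminescence tracks viable cell number. Compound (23 nL, DMSO) added 5 h post-seeding; kinetic reads at 0–40 h, 37 C.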
# [2] = A CellTox Green Cytotoxicity Assay to monitor cytotoxicity in HEK293 cells - 8 hour (AID 1224884); details: CellTox Green fluorescence; series mostly up to 76.8 µM; also: nearly all actives have a fitted effect of over 35% in size; also: potency is read from the fitted curve at half-maximal effect; as to cytotoxicity increase: % is scaled to controls: 0 for no effect and ±100 for the full control effect
# Method in brief: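 Cells (HEK293, 600/well) and dye reagent are dispensed together. After 5 h at 37 C, 23 nL compound is pinned in. Plates stay at 37 C for 40 h with fluorescence read at 0h, 8h, 16h, 24h, 32h and 40h.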
# [3] = qHTS assay to identify small molecule agonists of the sonic hedgehog signaling (Shh) pathway - cell viability counter screen (AID 1259366); details: NIH/3T3 Gli1-Luc viability, CellTiter-Fluor, 24 h; series mostly up to 92.4 µM; also: nearly all actives have a fitted effect of over 50% in size; also: potency is read from the fitted curve at half-maximal effect; as to viability change, negative = cytotoxic: % is scaled to controls: 0 for no effect and ±100 for the full control effect
# Method in brief: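 Cytotoxicity counter screen run in the same wells as the Shh reporter assay. NIH/3T3 cells carrying a Gli1 response element–driven luciferase were treated with DMSO-dissolved compounds for 24hr, and live-cell protease activity was measured with CellTiter-Fluor.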
# [4] = qHTS assay to identify small molecule antagonists of the androgen receptor (AR) signaling pathway - cell viability counter screen (AID 743033; also: nearly all actives have a fitted effect of over 45% in size; also: potency is read from the fitted curve at half-maximal effect; as to activity change, negative = cytotoxicity: % is scaled to controls: 0 for no effect and ±100 for the full control effect); details: AR-bla HEK293 viability, CellTiter-Glo luminescence, 16 h; series mostly up to 58.5 µM
# [5] = biological target: Nuclear receptor subfamily 1 group I member 2 (Homo sapiens) (UniProt O75469); assay: Human pregnane X receptor (PXR) small molecule agonists, qHTS assay (AID 1346982); details: PXR-Luc HepG2, CYP3A4 luciferase reporter, 24 h; series mostly up to 92.4 µM; also: nearly all actives have a fitted effect of over 35% in size; also: potency is read from the fitted curve at half-maximal effect
# Sequence of UniProt O75469 (O75469 whole entry, looked up): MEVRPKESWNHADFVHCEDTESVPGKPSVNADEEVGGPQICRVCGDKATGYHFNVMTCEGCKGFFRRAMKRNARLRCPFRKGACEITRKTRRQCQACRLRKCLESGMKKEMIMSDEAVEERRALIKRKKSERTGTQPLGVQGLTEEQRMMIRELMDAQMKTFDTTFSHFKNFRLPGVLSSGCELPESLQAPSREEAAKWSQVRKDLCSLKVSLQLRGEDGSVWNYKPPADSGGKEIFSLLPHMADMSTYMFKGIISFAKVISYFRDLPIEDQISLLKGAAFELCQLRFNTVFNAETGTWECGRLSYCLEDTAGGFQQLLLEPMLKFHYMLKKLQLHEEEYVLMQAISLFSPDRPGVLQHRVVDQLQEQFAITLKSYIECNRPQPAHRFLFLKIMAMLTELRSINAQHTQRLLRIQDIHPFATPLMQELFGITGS
# Method in brief: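 Cells: HepG2 stably carrying PXR-Luc. Medium held 5% charcoal-stripped FBS. Compounds in DMSO added after 5 hr plating, incubated 24 hr, then luminescence quantified with ONE-Glo.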
# [6] = qHTS RealTime-Glo MT Cell Viability Assay in HEK293 cells - 16 hour (AID 1224872); details: RealTime-Glo luminescence; series mostly up to 76.8 µM; also: nearly all actives have a fitted effect of over 50% in size; also: potency is read from the fitted curve at half-maximal effect
# Method in brief: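 Reads taken at 0, 8, 16, 24, 32 and 40 h from the same wells. HEK293 cells (600/well) carried RealTime-Glo reagents from seeding, with compound added after a 5 h settle at 37 C.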
# [7] = biological target: Cytochrome P450 3A4 (Homo sapiens) (UniProt P08684); assay: Cytochrome P450 Family 3 Subfamily A Member 4 (CYP3A4) small molecule antagonists: luciferase reporter qHTS assay (AID 1671201); details: P450-Glo CYP3A4 enzyme, luciferin luminescence, 1 h; series mostly up to 115 µM; also: potency is read from the fitted curve at half-maximal effect; nearly all actives have a fitted effect of over 50% in size
# Sequence of UniProt P08684 (P08684 whole entry, looked up): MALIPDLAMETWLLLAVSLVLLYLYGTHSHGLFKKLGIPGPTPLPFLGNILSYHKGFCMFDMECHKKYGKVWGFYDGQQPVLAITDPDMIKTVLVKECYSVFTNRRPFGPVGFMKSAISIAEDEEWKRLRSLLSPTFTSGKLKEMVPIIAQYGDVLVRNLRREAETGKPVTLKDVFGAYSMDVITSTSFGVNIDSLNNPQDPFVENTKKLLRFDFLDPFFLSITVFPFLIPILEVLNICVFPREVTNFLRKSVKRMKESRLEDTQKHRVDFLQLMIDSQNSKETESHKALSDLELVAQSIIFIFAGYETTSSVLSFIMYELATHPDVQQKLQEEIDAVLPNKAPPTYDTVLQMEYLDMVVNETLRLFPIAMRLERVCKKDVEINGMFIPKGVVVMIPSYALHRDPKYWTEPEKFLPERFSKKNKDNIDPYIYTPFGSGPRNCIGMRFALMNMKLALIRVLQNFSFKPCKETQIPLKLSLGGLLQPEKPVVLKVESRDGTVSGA
# Method in brief: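 Compounds in DMSO were pin-transferred onto CYP3A4 enzyme-substrate mix and held 10 min at room temperature. NADPH regenerating solution started the reaction for 1 h; luciferin detection reagent stopped it, and luminescence was read after 20 min.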
# [8] = biological target: Thyrotropin receptor (Homo sapiens) (UniProt P16473); assay: qHTS assay to identify small molecule antagonists of the thyroid stimulating hormone receptor (TSHR) signaling pathway (AID 1259385; calls by dose curve; also: nearly all actives have a fitted effect of over 20% in size; also: potency is read from the fitted curve at half-maximal effect; as to activity change, negative = inhibition: % is scaled to controls: 0 for no effect and ±100 for the full control effect); details: TSHR-HEK293 cAMP HTRF, TSH-stimulated antagonist mode; activity change, negative = inhibition: at 92.4 µM (top of the series)
# Sequence of UniProt P16473 (P16473 whole entry, looked up): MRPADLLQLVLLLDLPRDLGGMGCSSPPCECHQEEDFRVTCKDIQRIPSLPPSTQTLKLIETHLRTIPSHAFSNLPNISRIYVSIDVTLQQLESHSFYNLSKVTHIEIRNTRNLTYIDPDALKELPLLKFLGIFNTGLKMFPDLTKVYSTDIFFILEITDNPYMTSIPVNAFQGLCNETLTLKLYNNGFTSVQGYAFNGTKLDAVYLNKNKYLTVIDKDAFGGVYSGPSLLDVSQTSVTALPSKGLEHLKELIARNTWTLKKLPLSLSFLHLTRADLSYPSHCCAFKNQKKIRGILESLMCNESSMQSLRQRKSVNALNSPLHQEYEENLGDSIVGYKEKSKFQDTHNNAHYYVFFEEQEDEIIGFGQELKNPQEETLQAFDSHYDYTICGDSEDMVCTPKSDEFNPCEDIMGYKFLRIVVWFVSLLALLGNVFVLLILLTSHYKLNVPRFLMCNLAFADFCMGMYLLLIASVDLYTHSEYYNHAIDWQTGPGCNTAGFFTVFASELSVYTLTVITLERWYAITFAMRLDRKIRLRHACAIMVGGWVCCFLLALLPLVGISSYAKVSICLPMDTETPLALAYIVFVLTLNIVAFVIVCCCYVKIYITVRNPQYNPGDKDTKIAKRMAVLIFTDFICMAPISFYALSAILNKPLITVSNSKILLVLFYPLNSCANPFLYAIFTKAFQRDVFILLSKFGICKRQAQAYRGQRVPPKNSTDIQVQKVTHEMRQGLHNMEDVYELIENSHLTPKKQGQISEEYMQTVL
# Method in brief: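 TSHR-HEK293 cells (800/well) plated 18 h, then compounds with Ro20-1724 and TSH at 1.5 ng/mL final, 30 min at room temperature. cAMP quantified by HTRF (cAMP-d2/anti-cAMP-cryptate, 1 h); 15 concentrations in triplicate.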
# [9] = qHTS assay for small molecule activators of the heat shock response signaling pathway - cell viability counter screen (AID 743209); details: HSE-bla HeLa viability, CellTiter-Glo luminescence, 5 h; activity change, negative = cytotoxicity: at 62.6 µM (top of the series); also: nearly all actives have a fitted effect of over 50% in size; also: potency is read from the fitted curve at half-maximal effect
# Method in brief: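 Cytotoxicity counter screen run in parallel with the HSE beta-lactamase reporter, using the same wells. HeLa HSE-bla cells received compound for 5 h at 37 C; ATP-based CellTiter-Glo luminescence was measured after 30 min at room temperature.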
# [10] = biological target: Voltage-gated inwardly rectifying potassium channel KCNH2 (Homo sapiens) (UniProt Q12809); assay: Human Ether-a-go-go-Related Gene (hERG) channel small molecule antagonists: fluorescence cell-based qHTS assay (AID 1671200); details: hERG-U2OS cells, FluxOR thallium flux fluorescence; series mostly up to 76.8 µM; also: nearly all actives have a fitted effect of over 50% in size; also: potency is read from the fitted curve at half-maximal effect
# Sequence of UniProt Q12809 (Q12809 whole entry, looked up): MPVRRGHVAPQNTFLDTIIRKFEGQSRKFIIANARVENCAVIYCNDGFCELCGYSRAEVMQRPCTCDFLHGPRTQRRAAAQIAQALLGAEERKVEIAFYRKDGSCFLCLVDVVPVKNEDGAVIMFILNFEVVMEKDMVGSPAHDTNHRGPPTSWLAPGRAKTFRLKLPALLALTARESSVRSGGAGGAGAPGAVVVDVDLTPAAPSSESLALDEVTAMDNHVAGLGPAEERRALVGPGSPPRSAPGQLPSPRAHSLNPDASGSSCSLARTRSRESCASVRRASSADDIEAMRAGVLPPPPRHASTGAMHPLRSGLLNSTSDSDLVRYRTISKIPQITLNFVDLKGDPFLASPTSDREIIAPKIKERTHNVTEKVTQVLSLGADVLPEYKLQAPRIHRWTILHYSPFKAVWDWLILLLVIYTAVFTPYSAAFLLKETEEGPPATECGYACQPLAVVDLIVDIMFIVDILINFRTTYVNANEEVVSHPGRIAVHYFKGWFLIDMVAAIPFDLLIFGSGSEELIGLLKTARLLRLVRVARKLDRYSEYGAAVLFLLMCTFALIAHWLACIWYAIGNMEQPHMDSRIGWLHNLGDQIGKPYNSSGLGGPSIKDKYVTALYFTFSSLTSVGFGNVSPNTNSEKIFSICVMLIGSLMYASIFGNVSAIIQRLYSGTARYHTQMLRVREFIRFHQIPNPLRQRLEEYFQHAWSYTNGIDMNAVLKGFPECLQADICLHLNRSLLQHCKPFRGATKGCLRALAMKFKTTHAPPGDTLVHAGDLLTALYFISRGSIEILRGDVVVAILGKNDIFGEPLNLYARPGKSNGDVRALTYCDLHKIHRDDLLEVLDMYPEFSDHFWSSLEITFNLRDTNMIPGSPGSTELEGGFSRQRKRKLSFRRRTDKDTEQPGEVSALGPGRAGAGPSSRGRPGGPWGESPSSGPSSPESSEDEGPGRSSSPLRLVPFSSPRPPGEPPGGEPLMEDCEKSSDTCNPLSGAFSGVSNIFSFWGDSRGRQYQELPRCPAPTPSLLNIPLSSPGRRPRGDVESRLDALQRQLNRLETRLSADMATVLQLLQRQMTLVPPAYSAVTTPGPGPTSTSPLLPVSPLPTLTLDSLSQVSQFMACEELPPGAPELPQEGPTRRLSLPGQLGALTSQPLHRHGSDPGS
# Method in brief: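 Channel function was assessed by thallium flux. Cells seeded the previous day and kept at 37 C took up FluxOR II dye over 1 h in the dark at room temperature, then sat another 10 min before stimulation.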
# [11] = biological target: Estrogen receptor (Homo sapiens) (UniProt P03372); assay: qHTS assay to identify small molecule agonists of the estrogen receptor alpha (ER-alpha) signaling pathway (AID 743075; calls by dose curve;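 also: HEK293 GripTite cells with ER-alpha and UAS-driven beta-lactamase reporter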; also: potency is read from the fitted curve at half-maximal effect); details: HEK293 ER-alpha-UAS-bla, beta-lactamase FRET ratio, 18 h; activation: at 70.1 µM (top of the series) unless noted
# Sequence of UniProt P03372 (P03372 whole entry, looked up): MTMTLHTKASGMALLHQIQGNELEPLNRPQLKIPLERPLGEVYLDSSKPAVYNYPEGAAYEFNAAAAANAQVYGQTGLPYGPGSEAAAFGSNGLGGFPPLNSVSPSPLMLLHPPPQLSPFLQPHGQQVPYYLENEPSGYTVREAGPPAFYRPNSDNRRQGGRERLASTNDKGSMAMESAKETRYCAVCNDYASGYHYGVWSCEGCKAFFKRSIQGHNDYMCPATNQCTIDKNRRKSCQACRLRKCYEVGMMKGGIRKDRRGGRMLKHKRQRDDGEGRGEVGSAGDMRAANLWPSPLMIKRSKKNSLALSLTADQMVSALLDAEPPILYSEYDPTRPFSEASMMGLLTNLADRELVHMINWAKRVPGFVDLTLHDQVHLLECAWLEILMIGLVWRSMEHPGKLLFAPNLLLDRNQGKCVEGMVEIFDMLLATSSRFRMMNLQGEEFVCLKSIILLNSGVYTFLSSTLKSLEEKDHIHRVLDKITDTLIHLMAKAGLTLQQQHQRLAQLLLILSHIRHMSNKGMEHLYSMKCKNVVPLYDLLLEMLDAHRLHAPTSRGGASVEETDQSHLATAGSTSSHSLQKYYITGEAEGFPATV
# [12] = qHTS assay to identify small molecule antagonists of the estrogen receptor alpha (ER-alpha) signaling pathway using the BG1 cell line (AID 743080; calls by dose curve;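 also: BG1 cells stimulated with 17beta-estradiol alongside compound; nearly all actives have a fitted effect of over 25% in size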; also: potency is read from the fitted curve at half-maximal effect); details: BG1Luc4E2 ERE-luciferase antagonist mode, luminescence; activity change, negative = inhibition: at 70.3 µM (top of the series) unless noted
# Method in brief: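 Quantitative HTS on the Tox21 10K library: BG1 cells with endogenous ER-alpha and ERE-luciferase reporter, 17beta-estradiol stimulation, 21.5 h compound exposure, luminescence endpoint with parallel fluorescence cytotoxicity counter-read.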
# [13] = biological target: Acetylcholinesterase (Homo sapiens) (UniProt P22303); assay: Acetylcholinesterase (AChE) small molecule antagonists: colormetric cell-based qHTS assay (AID 1347395; calls by dose curve; also: potency is read from the fitted curve at half-maximal effect; nearly all actives have a fitted effect of over 30% in size); details: SH-SY5Y cells AChE activity, colorimetric (Ellman); series mostly up to 115 µM
# Sequence of UniProt P22303 (P22303 whole entry, looked up): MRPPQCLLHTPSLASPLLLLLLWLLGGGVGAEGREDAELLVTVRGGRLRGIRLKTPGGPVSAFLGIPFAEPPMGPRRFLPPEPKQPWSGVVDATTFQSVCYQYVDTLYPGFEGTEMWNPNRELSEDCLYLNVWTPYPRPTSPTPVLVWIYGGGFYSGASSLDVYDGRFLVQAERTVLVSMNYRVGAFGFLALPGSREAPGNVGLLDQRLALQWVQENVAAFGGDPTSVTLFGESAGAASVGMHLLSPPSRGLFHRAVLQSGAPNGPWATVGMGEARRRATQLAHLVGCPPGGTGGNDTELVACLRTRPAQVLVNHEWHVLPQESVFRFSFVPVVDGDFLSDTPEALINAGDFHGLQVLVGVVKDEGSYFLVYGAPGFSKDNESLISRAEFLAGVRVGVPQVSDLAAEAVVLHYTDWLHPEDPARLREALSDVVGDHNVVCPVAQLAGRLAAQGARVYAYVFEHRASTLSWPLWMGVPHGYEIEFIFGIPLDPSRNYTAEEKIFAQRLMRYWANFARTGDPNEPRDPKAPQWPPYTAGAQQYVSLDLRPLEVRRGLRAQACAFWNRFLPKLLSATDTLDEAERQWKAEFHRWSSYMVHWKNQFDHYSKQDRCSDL
# Method in brief: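 Colorimetric read-out: DTNB detects thiocholine released when cellular AChE in SH-SY5Y cells hydrolyses acetylthiocholine. Cells attached overnight, received compound for 30 min at 37 C, then substrate mix for 90 min at 37 C.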
# [14] = biological target: Peroxisome proliferator-activated receptor delta (Homo sapiens) (UniProt Q03181); assay: qHTS assay to identify small molecule agonists of the peroxisome proliferator-activated receptor delta (PPARd) signaling pathway (AID 743212; calls by dose curve; also: potency is read from the fitted curve at half-maximal effect); details: HEK293H PPARd-UAS-bla, beta-lactamase FRET ratio, 17 h; activation: at 62.6 µM (top of the series) unless noted
# Sequence of UniProt Q03181 (Q03181 whole entry, looked up): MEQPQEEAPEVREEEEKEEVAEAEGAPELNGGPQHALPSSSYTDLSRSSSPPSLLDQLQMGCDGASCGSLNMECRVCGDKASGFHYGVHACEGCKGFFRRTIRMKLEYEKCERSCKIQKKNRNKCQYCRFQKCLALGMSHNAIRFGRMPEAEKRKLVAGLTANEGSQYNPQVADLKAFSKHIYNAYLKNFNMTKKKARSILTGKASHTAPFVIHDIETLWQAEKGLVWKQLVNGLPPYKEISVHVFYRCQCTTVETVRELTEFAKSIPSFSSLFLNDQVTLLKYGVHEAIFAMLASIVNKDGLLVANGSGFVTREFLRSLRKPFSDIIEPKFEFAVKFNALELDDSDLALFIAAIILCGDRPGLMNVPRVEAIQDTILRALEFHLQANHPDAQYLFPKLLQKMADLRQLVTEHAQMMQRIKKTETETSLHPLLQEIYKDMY
# Method in brief: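 Read-out: beta-lactamase FRET fluorescence after 2 h room-temperature incubation with LiveBLAzer B/G substrate. Cells were HEK293H carrying a UAS-bla reporter for PPARd, treated at 37 C with DMSO-dissolved compounds.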
# [15] = biological target: Bile acid receptor (Homo sapiens) (UniProt Q96RI1); assay: qHTS assay to identify small molecule agonists of the farnesoid-X-receptor (FXR) signaling pathway (AID 743220; active = well fitted activation curve with a large enough effect in the signal ratio in the repeat runs, not every such curve was filed as active; inconclusive = weak or mixed curves, or effect the other way; the % refers to the signal ratio; also: potency is read from the fitted curve at half-maximal effect); details: HEK293T FXR-UAS-bla, beta-lactamase FRET ratio, 16 h; activation: at 62.6 µM (top of the series)
# Sequence of UniProt Q96RI1 (Q96RI1 whole entry, looked up): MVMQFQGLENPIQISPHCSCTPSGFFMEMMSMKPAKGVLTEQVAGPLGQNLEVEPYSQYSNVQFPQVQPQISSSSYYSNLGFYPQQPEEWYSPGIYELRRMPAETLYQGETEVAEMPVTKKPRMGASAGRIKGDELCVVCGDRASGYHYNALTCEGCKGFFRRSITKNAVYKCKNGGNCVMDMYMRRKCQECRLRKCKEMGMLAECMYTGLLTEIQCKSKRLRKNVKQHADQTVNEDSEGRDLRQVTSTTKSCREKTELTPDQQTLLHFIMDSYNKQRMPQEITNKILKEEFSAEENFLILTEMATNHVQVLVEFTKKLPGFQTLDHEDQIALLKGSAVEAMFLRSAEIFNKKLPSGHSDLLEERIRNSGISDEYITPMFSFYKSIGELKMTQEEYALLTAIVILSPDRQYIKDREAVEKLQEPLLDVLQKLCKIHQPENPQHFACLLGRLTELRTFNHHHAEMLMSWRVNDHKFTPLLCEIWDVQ
# Method in brief: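 FXR-UAS-bla HEK 293T cells carrying a UAS-driven beta-lactamase reporter were plated for 5 h at 37C/5% CO2, then exposed to DMSO-dissolved Tox21 10K compounds for 16 h at 37C. A LiveBLAzer B/G FRET substrate was loaded for 2 h at room temperature before fluorescence reading.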
# [16] = qHTS assay to identify small molecule agonists of the retinoic acid receptor (RAR) signaling pathway (AID 1159553); details: C3RL4 RARE luciferase reporter, agonist, 6 h; activation: at 73.3 µM (top of the series) unless noted; also: potency is read from the fitted curve at half-maximal effect
# Method in brief: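 Seed C3RL4 reporter cells at 1,000 per well and incubate overnight at 37 C. Add compounds in DMSO, incubate 6 hr. Add luciferase reagent, wait 30 min at room temperature, read luminescence.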
# [17] = A CellTox Green Cytotoxicity Assay to monitor cytotoxicity in HepG2 cells - 24 hour (AID 1224878); details: CellTox Green fluorescence; series mostly up to 76.8 µM; also: % is scaled to controls: 0 for no effect and ±100 for the full control effect; nearly all actives have a fitted effect of over 45% in size
# Method in brief: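 Cells and non-lytic dye reagent are dispensed together (600 HepG2 cells/well) and incubated 5 h before DMSO compound transfer. Kinetic fluorescence is then recorded in the same wells during 40 h at 37 C.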
# [18] = qHTS assay for small molecule agonists of the p53 signaling pathway (AID 651631; calls by dose curve; also: potency is read from the fitted curve at half-maximal effect; nearly all actives have a fitted effect of over 15% in size); details: HCT-116 p53RE-bla reporter, beta-lactamase FRET ratio, 16 h; activation: at 73.3 µM (top of the series) unless noted
# Method in brief: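 Read-out is beta-lactamase FRET fluorescence measured 2 h after substrate addition at room temperature, in HCT-116 cells with a p53 response element-driven reporter exposed to compounds for 16 h at 37 °C.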
# [19] = qHTS assay to identify small molecule antagonists of the vitamin D receptor (VDR) signaling pathway - cell viability counter screen (AID 743225); details: VDR-bla HEK293T viability, CellTiter-Glo luminescence, 16 h; viability change, negative = cytotoxic: at 61 µM (top of the series) unless noted
# Method in brief: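 Read-out: CellTiter-Glo luminescence measured 30 min after reagent addition at room temperature. Cells were VDR-bla HEK 293T exposed 16 h at 37C, 5% CO2, to compound with 3 nM final calcitriol agonist.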
# Tags tell the direction and shape of the fitted curve or compound fluorescence and quenching.
smiles,measurement,setting,value
CC1CC(=O)O1 (configuration not stated),max response,[1],inactive: 4.47% and inactive: -6.16%
same,Potency,[2],"inconclusive: 21.9 µM [activator, single point]"
CCOP(=S)(OCC)SCCl,Potency,[3],inactive
CNN,Potency,[4],inactive
same,Potency,[5],"inconclusive: 69.4 µM [activator, single point]"
CCC(C)(C)c1cc(-n2nc3ccccc3n2)c(O)c(C(C)(C)CC)c1,Potency,[6],active: 24.9 µM
same,Potency,[7],"inconclusive: 32.2 µM [inhibitor, partial curve]"
CN(C)C(=O)Cl,Potency,[2],inactive
same,Potency,[8],inactive
same,Potency,[5],inactive
CC(C)[N+](C)(CCC(C(N)=O)(c1ccccc1)c1ccccc1)C(C)C,Potency,[9],inactive
CCC(=O)O[C@@H]1C=C2CCC3C(CCC4(C)C3CC[C@@H]4OC(=O)CC)C2CC1 (some centres not stated),Potency,[8],inconclusive: 33.5 µM
O=C(Cl)c1ccc(Cl)cc1,Potency,[6],"inconclusive: 61.6 µM [cytotoxic, single point]"
same,Potency,[10],inactive
COP(=S)(OC)Oc1ccc(S(=O)(=O)N(C)C)cc1,Potency,[4],"inconclusive: 34.7 µM [cytotoxic, partial curve, poor fit]"
same,Potency,[11],inconclusive: 49 µM
same,Potency,[12],"inconclusive: 77 µM [falling, single point]"
same,Potency,[13],"inconclusive: 43.6 µM [inhibitor, single point]"
CC(Oc1cc(Cl)c(Cl)cc1Cl)C(=O)O (configuration not stated),Potency,[4],inactive
same,Potency,[14],"inconclusive: 5.5 µM [rising, partial curve, poor fit]"
same,Potency,[15],inactive
same,Potency,[5],"inconclusive: 34.4 µM [activator, partial curve]"
Clc1ccc2ccccc2c1,Potency,[15],inactive
same,Potency,[6],"inconclusive: 63.6 µM [cytotoxic, single point]"
same,Potency,[2],"inconclusive: 56.6 µM [activator, single point]"
C#CC(C)(C)O,Potency,[14],inactive
same,Potency,[5],"inconclusive: 27.9 µM [activator, partial curve]"
NC(=O)c1cc([N+](=O)[O-])cc([N+](=O)[O-])c1,Potency,[9],"inconclusive: 1.19 µM [cytotoxic, single point]"
same,Potency,[13],"inconclusive: 30.9 µM [inhibitor, partial curve]"
CN1COCN(Cc2cnc(Cl)s2)/C1=N\[N+](=O)[O-],Potency,[8],"inconclusive: 1.37 µM [falling, single point]"
CCN[C@H](C)Cc1cccc(C(F)(F)F)c1,Potency,[9],inactive
same,Potency,[15],"inconclusive: 0.192 µM [rising, full curve, poor fit]"
same,activation,[16],inconclusive: -2.75% [phenotype inactive]
same,Potency,[2],"inconclusive: 54.7 µM [activator, single point]"
CCSC(=O)N(CC)C1CCCCC1,Potency,[11],inactive
same,Potency,[17],inactive
CC(CC(C(N)=O)(c1ccccc1)c1ccccc1)N(C)C (configuration not stated),Potency,[2],inactive
same,Potency,[3],"inconclusive: 5.96 µM [cytotoxic, partial curve, poor fit]"
Cc1nnc2n1-c1sc(CCC(=O)N3CCOCC3)cc1C(c1ccccc1Cl)=NC2,Potency,[18],"inconclusive: 7.5 µM [falling, single point]"
same,Potency,[14],inactive
same,Potency,[15],"inconclusive: 16.8 µM [rising, partial curve]"
CCOC(=O)/C=C(C)/C=C/C[C@@H](C)CCCC(C)C,Potency,[12],inactive
same,Potency,[15],inactive
same,Potency,[5],"inconclusive: 68.6 µM [activator, single point]"
same,Potency,[10],"inconclusive: 54.9 µM [inhibitor, partial curve, poor fit]"
ClC(Cl)C(Cl)(Cl)Cl,Potency,[12],inactive
same,Potency,[15],inactive
CC1=C(C(=O)O)N2C(=O)[C@@H](N)[C@H]2SC1,"activity change, negative = cytotoxicity",[6],inactive: 1.93% [at 15.8 µM]
same,cytotoxicity increase,[2],inactive: -10.6% [at 15.8 µM]
CN1[C@@H]2CC[C@H]1CC(O)C2 (some centres not stated),Potency,[5],inactive
C[C@]12CC[C@H]3[C@@H](CCC4=CC(=O)CC[C@@H]43)[C@@H]1CC[C@@H]2O,Potency,[11],active: 1.34 µM [inconclusive] and active: 268 nM [inconclusive] and active: 243 nM [inconclusive]
same,"activity change, negative = cytotoxicity",[9],inconclusive: -13.2% [cytotoxic]
COCC(=O)N(c1c(C)cccc1C)C(C)C(=O)OC (configuration not stated),Potency,[14],inactive
same,Potency,[16],"inconclusive: 0.0014 µM [activator, full curve, poor fit]"
same,Potency,[5],"inconclusive: 35.3 µM [activator, partial curve] and inconclusive: 11.9 µM [activator, partial curve]"
[O-][Br+2]([O-])O,Potency,[16],inactive
same,Potency,[3],inactive
CCNP(=S)(OC)O/C(C)=C/C(=O)OC(C)C (configuration not stated),Potency,[19],inactive
same,Potency,[16],inactive
same,Potency,[13],"inconclusive: 63.3 µM [inhibitor, partial curve]"
same,Potency,[10],"inconclusive: 43.6 µM [inhibitor, partial curve, poor fit]"
same,Potency,[7],active: 1.26 µM
